The record followed here is publication PMC6451091.

Some of the results follow. For part of these data: At the low end of the ranking the order means little. For part of these data: The protein was read in a cell extract, so binding may be indirect.

Common to all, as to conditions: 20 mM HEPES pH 7.9, 100 mM NaCl, 1 mM DTT, 0.2 mg/mL BSA, 0.02% Triton X-100, 2% milk, 0.4 mg/mL salmon testes DNA; 1 h; temperature not stated; high values mean tight binding; double strand, one strand shown; sequences stand for … in GCCTAGCAC…GTGCTAGGTCTTGATTCGCTTGACGCTGCTG
The target of one assay is PU.1 (IVT) (UniProt P17947). In words: protein-binding microarray (PBM).
Assay [1] has as its target T1, FLI1 (endogenous, THP-1 nuclear extract) (UniProt Q01543).
T1 sequence: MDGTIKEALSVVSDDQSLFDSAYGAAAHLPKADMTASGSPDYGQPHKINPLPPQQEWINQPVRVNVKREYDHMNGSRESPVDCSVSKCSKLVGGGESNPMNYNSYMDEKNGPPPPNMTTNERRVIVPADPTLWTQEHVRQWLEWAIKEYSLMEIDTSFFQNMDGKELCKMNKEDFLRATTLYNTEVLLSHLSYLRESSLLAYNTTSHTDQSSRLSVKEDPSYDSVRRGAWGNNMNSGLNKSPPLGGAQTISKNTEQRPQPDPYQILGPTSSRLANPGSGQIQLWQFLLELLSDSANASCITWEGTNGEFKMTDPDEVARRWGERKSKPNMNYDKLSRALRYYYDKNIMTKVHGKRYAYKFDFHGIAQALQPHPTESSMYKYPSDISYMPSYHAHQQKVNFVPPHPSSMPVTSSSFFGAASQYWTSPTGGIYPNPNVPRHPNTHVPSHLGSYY
In words: nuclear extract protein-binding microarray (nextPBM).

Assay [2] has as its system PU.1 (endogenous, THP-1 nuclear extract) + IRF8 (endogenous, THP-1 nuclear extract). Described as above.

For GGGGAGAGGAAGTGAAAGCA, the values for the binding signal (with PU.1 (IVT); in assay [1]; in assay [2]) were 4.09 z-score, 3.11 z-score and 12.3 z-score, respectively.
In the case of CTGGCAGGGAATTGAAACTC, the binding signal in the assay with PU.1 (IVT) is 0.0605 z-score; in assay [1] it was -0.36 z-score; in assay [2], 7.66 z-score.
On the same counts, the results for TGGCAGAGGAAGGGAAACTA are 1.45 z-score, 1.34 z-score and 2.28 z-score.
As to TAAAGGAGGCACTGAAACCA, the values for the binding signal (with PU.1 (IVT); in assay [1]; in assay [2]) were -0.394 z-score, -0.548 z-score and 5.28 z-score, respectively.
For GATAAGAGGAACTTAAAGCT, the results for the binding signal (in the assay with PU.1 (IVT); in assay [1]; in assay [2]) were 5.22 z-score, 1.28 z-score and 0.0979 z-score, respectively.
On the same counts, the results for AAGAAAAGGAAATGAAAGTA are 1.42 z-score, 2.19 z-score and 9.44 z-score.
On the same counts, the results for CTGCCAAGGAAGTGAAAGCA are 1 z-score, 1.44 z-score and 6.01 z-score.
On the same counts, the results for GATAAGAGGAACTGAAAGTT are 4.34 z-score, 1.67 z-score and 9.64 z-score.
Consider AGAAAAGAGAAGTGAAACTC, for which the binding signal is 3.38 z-score with PU.1 (IVT), 2.05 z-score in assay [1] and 57.2 z-score in assay [2].
On the same counts, the results for AAAAAAAAGAAATGAAAGTA are 0.389 z-score, 0.166 z-score and 6.13 z-score.
On the same counts, the results for GTAATGGGGAACAGAAACCG are 1.69 z-score, 1.17 z-score and 7.73 z-score.
On the same counts, the results for AAGAAGAGGAAGAGAAACTA are 2.65 z-score, 1.57 z-score and 8.55 z-score.
With GGTGCTAGGAACTGAAACTA, the binding signal with PU.1 (IVT) stood at 0.357 z-score; in assay [1] it was 0.312 z-score; in assay [2] it was 24.5 z-score.
On the same counts, the results for TTAGAGGAGAAGTGAAACCT are 1.39 z-score, 0.686 z-score and 25.1 z-score.
In the case of TGGCAGAGCAAGTGAAACTA, the binding signal was -0.639 z-score with PU.1 (IVT), -0.56 z-score in assay [1] and 25.9 z-score in assay [2].
On the same counts, the results for CAGTTGAGGAAGTGAAACTG are 4.67 z-score, 3.48 z-score and 64.5 z-score.
Consider TGGCAGAGGAAGTGGAACTA, for which the binding signal turned out to be 3.96 z-score with PU.1 (IVT), 2.86 z-score in assay [1] and 1.48 z-score in assay [2].
Regarding AAAAAGAGGAAGGGAAACTA, the binding signal in the assay with PU.1 (IVT) turned out to be 5.12 z-score; in assay [1], 2.73 z-score; in assay [2] it was 17.4 z-score.
On the same counts, the results for AGAAACAGGAAGTGAAACTG are 7.62 z-score, 6.05 z-score and 77.9 z-score.
Regarding TGGCTGAGGAAGTGAAACTA, the binding signal is 3.15 z-score with PU.1 (IVT), 3.27 z-score in assay [1] and 61 z-score in assay [2].
On the same counts, the results for TAAAGGAGGAATTGAAACCA are 1.22 z-score, 0.879 z-score and 13.1 z-score.
